Article PMC4914680 (Antimicrobial Agents and Chemotherapy, 2016)
Where two headings read alike, the source gives them in different places.

Columns and labels:
Assay type in all cases: cell-based
[1] = system: HIV-1 NL4-3 V370M variant
[2] = system: HIV-1 NL4-3 V370A/ΔT371 variant; conditions: Human immunodeficiency virus 1, NL43, MT2, read-out: EC50 (SD)
[3] = system: HIV-1 NL4-3 T371A variant; conditions: Human immunodeficiency virus 1, NL43, MT2, read-out: EC50 (SD)
[4] = system: HIV-1 NL4-3 V362I variant
[5] = system: HIV-1 NL4-3 V370A variant
[6] = system: HIV-1 NL4-3 ΔT371 variant; conditions: Human immunodeficiency virus 1, NL43, MT2, read-out: EC50 (SD)
[7] = Human immunodeficiency virus 1, NL43, MT2, read-out: EC50 (SD)
[8] = Human immunodeficiency virus 1, NL43, MT2

SMILES: C=C(C)[C@@H]1CC[C@]2(C(=O)O)CC[C@]3(C)[C@H](CC[C@@H]4[C@@]5(C)CC=C(c6ccc(C(=O)O)cc6)C(C)(C)[C@@H]5CC[C@]43C)[C@@H]12 [BMS-1]
- EC50 [1, 7]: > 4000 nM
- EC50 [2]: > 10000 nM
- EC50 [3]: 28 nM

SMILES: C=C(C)[C@@H]1CC[C@]2(NCCN3CCS(=O)(=O)CC3)CC[C@]3(C)[C@H](CC[C@@H]4[C@@]5(C)CC=C(c6ccc(C(=O)O)cc6)C(C)(C)[C@@H]5CC[C@]43C)[C@@H]12 [BMS-955176]
- EC50 [4, 7]: 4.5 nM
- EC50 [5, 7]: 2.7 nM
- EC50 [1, 7]: 2.8 nM
- EC50 [2]: 6.6 nM
- EC50 [3]: 2 nM
- EC50 [6]: 7.3 nM

SMILES: C=C(C)[C@@H]1CC[C@]2(C(=O)NCCc3ccccn3)CC[C@]3(C)[C@H](CC[C@@H]4[C@@]5(C)CC=C(c6ccc(C(=O)O)cc6)C(C)(C)[C@@H]5CC[C@]43C)[C@@H]12 [BMS-2]
- EC50 [4, 7]: 76 nM
- EC50 [1, 7]: 61 nM
- EC50 [2]: 188 nM
- EC50 [3]: 19 nM
- EC50 [6]: 38 nM

SMILES: C=C(C)[C@@H]1CC[C@]2(C(=O)NCCN(C)C)CC[C@]3(C)[C@H](CC[C@@H]4[C@@]5(C)CC=C(c6ccc(C(=O)O)cc6)C(C)(C)[C@@H]5CC[C@]43C)[C@@H]12 [BMS-3]
- EC50 [4, 7]: 18 nM
- EC50 [1, 7]: 10 nM
- EC50 [3]: 3.4 nM

SMILES: Cc1c(O)cccc1C(=O)N[C@@H](CSc1ccccc1)[C@H](O)CN1C[C@H]2CCCC[C@H]2C[C@H]1C(=O)NC(C)(C)C [NFV]
- EC50 [4, 8]: 5 nM
- EC50 [5, 8]: 4 nM
- EC50 [1, 8]: 5 nM
